# Data reported in PubChem BioAssay (NCATS).
# Where “and” joins values, the source holds several entries; their conditions need not be identical. Identical values can stand only once. The inconclusive results got no clear call from the source; some entries with a clear call stand among them for comparison. A potency beside an inconclusive call is a rough fit, not a confirmed value. Calls of active or inactive are those of the source. The call rests on the fitted dose curve; in most records, active means well fitted curve in the direction sought with a large enough effect; inconclusive means small, poorly fitted or top-dose-only effect, or another doubt; inactive means no such curve, though single readings can be large; an effect the other way counts as inactive or inconclusive.
# How the values were obtained:
# [1] = tested on: KB-3-1; assay: Cytotoxic Profiling of Annotated Libraries Using Quantitative High-Throughput Screening (AID 1296008); conditions: Five cell lines viability, CellTiter-Glo ATP luminescence, 48-72 h; max response: stronger effect = lower value; further: nearly all actives have a fitted effect of over 60% in size; on max response: on the % scale 0 is the no-effect control and ±100 the full control effect
# Procedure, shortened: (§1)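 Cytotoxicity was measured as CellTiter-Glo ATP luminescence, read after 10 min at room temperature. Compound treatment of the cells lasted 48 or 72 hr at 37 degrees Celsius in a qHTS format.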
# [2] = tested on: MCC-13; assay: qHTS assay to identify novel small-molecules to repurpose for Merkel cell carcinoma treatment (AID 1296009); conditions: MCC and control cell lines, CellTiter-Glo viability, 72 h; series mostly up to 46 µM; further: nearly all actives have a fitted effect of over 60% in size; on activity change, negative = cytotoxicity: on the % scale 0 is the no-effect control and ±100 the full control effect
# Procedure, shortened: (§2)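 After compound transfer in DMSO, plates were kept 72 hr at 37 degree celsius. Luminescent ATP signal from CellTiter-Glo served as viability measure, normalized against DMSO and no-cell controls.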
# [3] = tested on: MCC-26; assay: as above; conditions: MCC and control cell lines, CellTiter-Glo viability, 72 h; series mostly up to 46 µM
# Procedure, shortened: as §2
# [4] = tested on: MKL-1; assay: as above; conditions: MCC and control cell lines, CellTiter-Glo viability, 72 h; series mostly up to 46 µM
# Procedure, shortened: as §2
# [5] = tested on: MKL-2; assay: as above; conditions: MCC and control cell lines, CellTiter-Glo viability, 72 h; activity change, negative = cytotoxicity: at 46 µM (top of the series)
# Procedure, shortened: as §2
# [6] = tested on: UISO; assay: as above; conditions: MCC and control cell lines, CellTiter-Glo viability, 72 h; series mostly up to 46 µM
# Procedure, shortened: as §2
# [7] = tested on: WaGa; assay: as above; conditions: MCC and control cell lines, CellTiter-Glo viability, 72 h; series mostly up to 46 µM
# Procedure, shortened: as §2
# [8] = tested on: C33A; assay: Primary qHTS to identify gynecologic anti-cancer compounds using libraries of approved drugs and bioactive compounds (AID 1345084); conditions: Gynecologic cancer cell panel viability, ATPlite luminescence, 48 h; series mostly up to 57.5 µM; further: nearly all actives have a fitted effect of over 55% in size
# Procedure, shortened: (§3)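 Cell viability after 48 h drug treatment, ATPlite luminescence readout; five doses.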
# [9] = tested on: CAOV3; assay: as above; conditions: Gynecologic cancer cell panel viability, ATPlite luminescence, 48 h; series mostly up to 57.5 µM
# Procedure, shortened: as §3
# [10] = tested on: NIH3T3; assay: Cytotoxic Profiling of Annotated Libraries Using Quantitative High-Throughput Screening (AID 1296008); conditions: Five cell lines viability, CellTiter-Glo ATP luminescence, 48-72 h; max response: stronger effect = lower value; further: nearly all actives have a fitted effect of over 60% in size; on max response: on the % scale 0 is the no-effect control and ±100 the full control effect
# Procedure, shortened: as §1
# Potency means the concentration at half of the fitted maximal effect; tags describe the fitted curve by direction and shape.
smiles,measurement,setting,value
COc1ccc(OC)c(-c2nnc3ccc(-c4ccc(OC)c(O[C@@H]5CCOC5)c4)nn23)c1,Potency,[1],active: 6.51 µM
same,Potency,[2],"inconclusive: 33.2 µM [inhibitor, single point]"
same,Potency,[3],"inconclusive: 23.5 µM [inhibitor, partial curve]"
same,Potency,[4],"inconclusive: 37.2 µM [inhibitor, single point]"
same,Potency,[5],active: 18.7 µM
same,Potency,[6],"inconclusive: 29.6 µM [inhibitor, single point]"
same,Potency,[7],"inconclusive: 29.6 µM [inhibitor, single point]"
same,Potency,[8],"inconclusive: 39.8 µM [cytotoxic, single point]"
same,Potency,[9],"inconclusive: 28.2 µM [cytotoxic, partial curve, poor fit]"
CC1=C(C(=O)Nc2cc3cn[nH]c3cc2F)C(c2ccc(C(F)(F)F)cc2)CC(=O)N1 (configuration not stated),max response,[1],inactive: 1.78% and inactive: 8.86%
same,Potency,[10],"inconclusive: 23.5 µM [inhibitor, single point]"
same,Potency,[2],"inconclusive: 7.43 µM [inhibitor, full curve]"
same,Potency,[7],"inconclusive: 8.33 µM [inhibitor, full curve]"
CC(C)c1ccccc1Cc1cc(C(=O)Nc2ccc(S(=O)(=O)c3ccccc3C(C)(C)C)cc2)c(O)c(O)c1O,Potency,[1],active: 8.33 µM
same,Potency,[10],"inconclusive: 33.2 µM [inhibitor, single point]"
same,Potency,[5],inactive
CCOc1ccn(-c2ccc(F)cc2)c(=O)c1C(=O)Nc1ccc(Oc2ccnc(N)c2Cl)c(F)c1,Potency,[1],"inconclusive: 23.1 µM [inhibitor, single point]"
same,Potency,[10],"inconclusive: 10.5 µM [inhibitor, partial curve] and inconclusive: 13 µM [inhibitor, partial curve]"
same,Potency,[6],"inconclusive: 37.2 µM [inhibitor, single point]"
same,Potency,[9],"inconclusive: 8.91 µM [cytotoxic, full curve, poor fit]"
CC[C@H](C)C(=O)O[C@H]1C[C@@H](C)C=C2C=C[C@H](C)[C@H](CC[C@@H]3C[C@@H](O)CC(=O)O3)[C@H]21,Potency,[1],"inconclusive: 29.1 µM [inhibitor, single point] and inconclusive: 33.2 µM [inhibitor, single point] and inconclusive: 15.9 µM [inhibitor, single point]"
same,Potency,[10],"inconclusive: 15 µM [inhibitor, partial curve] and inconclusive: 23.5 µM [inhibitor, single point]"
same,Potency,[2],"inconclusive: 37.2 µM [inhibitor, single point]"
same,Potency,[5],"inconclusive: 21.1 µM [inhibitor, partial curve]"
same,"activity change, negative = cytotoxicity",[5],inconclusive: -41.5% [inhibitor]
same,Potency,[7],"inconclusive: 26.6 µM [inhibitor, single point] and inactive"
CC1=C(C(=O)Nc2cc3cn[nH]c3cc2F)C(c2ccc(Cl)cc2F)N=C(c2ccnc(Cl)c2)N1 (configuration not stated),Potency,[1],"inconclusive: 26.4 µM [inhibitor, single point] and inconclusive: 18.4 µM [inhibitor, single point]"
same,Potency,[10],active: 11.8 µM
same,Potency,[2],"inconclusive: 9.35 µM [inhibitor, partial curve]"
same,Potency,[5],active: 20.9 µM
same,Potency,[6],"inconclusive: 18.7 µM [inhibitor, partial curve]"
same,Potency,[8],"inconclusive: 1.78 µM [cytotoxic, partial curve, poor fit]"
CCOC(=O)C1=C(C)NC(=S)NC1c1cccc(O)c1 (configuration not stated),Potency,[1],active: 0.0469 µM
same,Potency,[10],"inconclusive: 0.0662 µM [inhibitor, full curve, poor fit]"
same,Potency,[3],"inconclusive: 0.469 µM [inhibitor, full curve]"
same,Potency,[5],inactive
same,Potency,[6],active: 0.148 µM
same,Potency,[7],active: 0.0526 µM
COc1cccc2nc(-c3cccs3)nc(NN3C(=O)C=C(C)C3=O)c12,Potency,[1],active: 5.9 µM and active: 10.3 µM
same,Potency,[10],active: 1.48 µM and active: 820 nM
same,Potency,[2],active: 2.64 µM
same,Potency,[8],active: 31.6 µM
same,Potency,[9],active: 15.8 µM
CC(C)NC[C@@H](C(=O)N1CCN(c2ncnc3c2[C@H](C)C[C@H]3O)CC1)c1ccc(Cl)cc1,Potency,[1],"inconclusive: 13.2 µM [inhibitor, partial curve]"
same,Potency,[10],"inconclusive: 20.9 µM [inhibitor, partial curve, poor fit]"
same,Potency,[6],"inconclusive: 2.96 µM [inhibitor, full curve]"
same,Potency,[7],active: 2.09 µM
